# Experimental data reported in PubChem BioAssay AID1030 (National Center for Advancing Translational Sciences (NCATS), 2008).
# The campaign covered roughly 220,000 compounds. About 16,000 (7.3%) were called active. Inconclusive means that the source gave no clear call. Such entries were picked first, then a sample of the others. Calls come from the whole dose curve; as a rule, active = well fitted inhibition curve with a large enough effect (not every such curve was filed as active); inconclusive = small, poorly fitted or top-dose-only effect, or another doubt; inactive = no such curve, though single readings can be large or run the other way. No potency is given beside an inconclusive call; the fits are too rough.
# Molecular target: Aldehyde dehydrogenase 1A1 (Homo sapiens) (UniProt P00352)
# Assay: qHTS Assay for Inhibitors of Aldehyde Dehydrogenase 1 (ALDH1A1)
# Settings: Purified ALDH1A1, NADH fluorescence, propionaldehyde substrate; series mostly up to 75.3 µM
# Potency is the fitted concentration of half-maximal effect; tags give direction and shape of the fitted curve.
# Chain of UniProt P00352 (P00352 whole entry, looked up): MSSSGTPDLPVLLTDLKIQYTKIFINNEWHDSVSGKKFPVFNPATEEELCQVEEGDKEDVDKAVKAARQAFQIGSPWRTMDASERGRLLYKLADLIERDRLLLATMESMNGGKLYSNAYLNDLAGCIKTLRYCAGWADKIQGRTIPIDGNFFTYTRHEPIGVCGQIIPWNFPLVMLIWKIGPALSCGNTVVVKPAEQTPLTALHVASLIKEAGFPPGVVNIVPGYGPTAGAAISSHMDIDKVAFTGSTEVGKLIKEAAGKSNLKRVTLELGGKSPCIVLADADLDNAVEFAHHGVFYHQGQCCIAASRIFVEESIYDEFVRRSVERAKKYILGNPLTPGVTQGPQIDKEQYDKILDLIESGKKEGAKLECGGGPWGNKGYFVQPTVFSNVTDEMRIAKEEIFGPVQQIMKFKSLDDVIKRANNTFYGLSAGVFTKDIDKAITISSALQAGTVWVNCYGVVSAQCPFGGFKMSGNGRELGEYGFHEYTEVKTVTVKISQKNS
row,Compound,Potency
1,O=C(Nc1cccc2ccccc12)/C(=C/c1ccc([N+](=O)[O-])cc1)NC(=O)c1ccccc1,inactive
2,O=S(=O)(Nc1ccc(N2CCOCC2)cc1)c1ccc2ccccc2c1,"inconclusive [inhibitor, partial curve]"
3,Cc1[nH]ccc(=O)c1OCc1ccc(Cl)cc1,inactive
4,O=C1c2ccccc2C(=O)N1CC1=NCCc2ccccc21,"inconclusive [inhibitor, single point]"
5,CC(=O)N/C(=C\c1ccccc1)C(=O)OCC(=O)N1CCCCCC1,active: 11.2 µM
6,COc1ccc(Cn2c(O)cc(=O)[nH]c2=O)cc1,"inconclusive [inhibitor, single point]"
7,CCOC(=O)c1c(C)c(C(=O)Nc2ccccc2)c(C)n1CC,inactive
8,CCN(CC)S(=O)(=O)c1ccc(O)c(C(=O)OCC(=O)N(C)Cc2ccccc2)c1,"inconclusive [inhibitor, single point]"
9,O=C(Cc1ccc(Cl)c(Cl)c1)Nc1cccc(S(=O)(=O)N2CCOCC2)c1,inactive
10,Cc1c(C)c2cc(Cl)c(O)c(CN3CCCC(C)C3)c2oc1=O (stereo unspecified),"inconclusive [inhibitor, partial curve]"
11,COc1ccc(C(=O)Nc2ccccc2C(=O)NC(Cc2ccc(O)cc2)C(=O)NNC(=O)c2ccccc2)cc1 (stereo unspecified),"inconclusive [inhibitor, single point]"
12,NC(=O)c1c(NC(=O)CN2CCOCC2)sc2c1CCC2,"inconclusive [inhibitor, single point]"
13,COc1cc2[nH]c(=S)nc(Nc3ccc(NC(C)=O)cc3)c2cc1OC,inactive
14,Cc1ccc2nc(C)cc(C(=O)Nc3nccs3)c2c1,"inconclusive [inhibitor, single point]"
15,Cc1cccc(C)c1NC(=O)C1C2C=CC(C2)C1C(=O)NCc1ccccn1 (stereo unspecified),inactive
16,Nc1c(C(=O)Nc2ccc3c(c2)OCCO3)nnn1CCc1ccccc1,"inconclusive [inhibitor, partial curve]"
17,CCc1nc(SCC(=O)N2CCN(c3ccccc3)CC2)c2oc3ccccc3c2n1,"inconclusive [inhibitor, single point]"
18,COc1ccccc1C1=NN(C(=S)Nc2ccccc2)C(c2ccco2)C1 (stereo unspecified),"inconclusive [inhibitor, single point]"
19,COc1ccc(NC(=O)CSc2nnc(NC(=O)c3ccccc3C(=O)O)s2)cc1,inactive
20,O=C(CSc1nnc(-c2ccncc2)n1Cc1ccco1)OC1CCCCC1,"inconclusive [inhibitor, single point]"
21,Cc1ccc(C(=O)Nc2cccc(Oc3ccccc3)c2)o1,inactive
22,O=C(Nc1ccc(Oc2ccc(NC(=O)C3CCCO3)cc2)cc1)C1CCCO1 (stereo unspecified),"inconclusive [inhibitor, partial curve]"
23,Cc1ccc(S(=O)(=O)N2CCOC2CNC(=O)C(=O)NCc2ccco2)cc1 (stereo unspecified),"inconclusive [inhibitor, single point]"
24,O=C(Nc1cc([N+](=O)[O-])ccc1N1CCCC1)c1ccco1,inactive

row,Compound,Potency
1,CC1Cc2ccccc2N1c1nc(C2CC2)nc2c1nnn2Cc1ccccc1 (stereo unspecified),"inconclusive [inhibitor, partial curve]"
2,Cc1ccn2c(NCc3ccc4c(c3)OCO4)c(-c3ccc(O)cc3)nc2c1,"inconclusive [inhibitor, partial curve]"
3,Cc1cc(C)n(CC(O)Cn2c(C)c(C)c3ccccc32)n1 (stereo unspecified),"inconclusive [inhibitor, single point]"
4,FC(F)(F)c1ccc2c(c1)[nH]c(=S)n2C1CC1,"inconclusive [inhibitor, single point]"
5,COC(=O)c1ccc(COc2ccccc2/C=C(\C#N)C(=O)NC(C)C)cc1,inactive
6,Cc1cc(C)n2nc(/C(C#N)=C/c3ccccn3)c(C#N)c2n1,active: 14.1 µM
7,O=C(O)CSC(C(=O)Nc1ccc(Br)cc1)c1ccccc1 (stereo unspecified),"inconclusive [inhibitor, single point]"
8,CN(C)c1nc(Cl)nc(N(C#N)CCOc2ccccc2)n1,active: 14.1 µM
9,O=C(NCC1CCCO1)c1sc(=S)n2c1[nH]c(=O)c1ccc(C(=O)N3CCCCC3)cc12 (stereo unspecified),"inconclusive [inhibitor, partial curve]"
10,O=C(c1ccccc1)N1CCN(C(=S)NCc2ccc3c(c2)OCO3)CC1,active: 17.8 µM
11,CCOc1ccc2nc(SC3CC(=O)N(c4ccc(C)cc4)C3=O)sc2c1 (stereo unspecified),active: 2.24 µM
12,COC(=O)c1c(-c2ccc(Br)cc2)csc1NC(=O)Cc1ccc(OC)c(OC)c1,"inconclusive [inhibitor, single point]"
13,O=C(c1ccncc1)N1CCC2(CC1)CCN(c1ccccn1)CC2,"inconclusive [inhibitor, partial curve]"
14,Cc1ccc(N2C(=O)c3cccc4c(Oc5ccccc5[N+](=O)[O-])ccc(c34)C2=O)c(C)c1,"inconclusive [inhibitor, full curve, poor fit]"
15,CCC1(C)Cc2nc3sc(C(=O)O)c(N)c3cc2CO1 (stereo unspecified),active: 22.4 µM
16,Cc1ccc(N(C(=O)c2cnccn2)C(C(=O)NC2CCCCC2)c2ccc(O)cc2)cc1 (stereo unspecified),inactive
17,CCN(c1nc(N)c(C(=O)N=C(N)N)nc1Cl)C(C)C,inactive
18,CCN(CC)c1cnn(C/C(=N\OC)c2ccc(Cl)cc2)c(=O)c1Br,inactive
19,CCC(C(=O)Nc1cc(C)nn1-c1nc(C)cc(C)n1)c1ccccc1 (stereo unspecified),"inconclusive [inhibitor, single point]"
20,C[C@H]1C(c2ccc(F)cc2)=NN(c2ccccc2)[C@@H]1CO,"inconclusive [inhibitor, partial curve]"
21,COc1ccc(OC)c(C(=O)c2ccc(C(=O)N3CCCCC3)cc2)c1,"inconclusive [inhibitor, partial curve]"
22,CC1(C)CC(=O)c2cnc3nc4ccccc4n3c2C1,"inconclusive [inhibitor, single point]"
23,c1ccc(Cn2nnnc2C(c2cccs2)N2CCSCC2)cc1 (stereo unspecified),"inconclusive [inhibitor, single point]"
24,CC(/C=C/c1ccccc1)=N\NC(=O)c1cc(C)nc2ccccc12,"inconclusive [inhibitor, single point]"

row,Compound,Potency
1,CN(C)C(=O)c1ccc(N/C=C(\C=O)c2nc3ccccc3o2)cc1,inactive
2,CCOc1ccc(-c2nnc(-c3ccco3)o2)cc1,"inconclusive [inhibitor, partial curve]"
3,C=CCOc1ccc(C2C(C#N)=C(N)N(Nc3ccccc3)C3=C2C(=O)CC(C)(C)C3)cc1OC (stereo unspecified),"inconclusive [inhibitor, partial curve]"
4,O=C(NNc1nc(-c2ccc(F)cc2)cs1)c1ccccc1,"inconclusive [inhibitor, single point]"
5,COc1ccc(CN(CC2CCC(C(=O)O)CC2)C(=S)Nc2cc(Cl)ccc2OC)cc1 (stereo unspecified),"inconclusive [inhibitor, single point]"
6,Cn1c(=O)c2c(nc(SCCN3CCOCC3)n2Cc2cccc3ccccc23)n(C)c1=O,active: 22.4 µM
7,Cc1ccc(S(=O)(=O)N/N=C/c2ccc(OC3CSC3)cc2)cc1,inactive
8,C/C(Cl)=C/Cn1c(=O)c2c(nc(Br)n2Cc2ccccc2)n(C)c1=O,inactive
9,Cc1ccc([N+](=O)[O-])c(C)[n+]1C,inactive
10,Cc1ccc(C)c(N2CCN(C(=O)CSc3ccsc3[N+](=O)[O-])CC2)c1,active: 11.2 µM
11,Cc1ccc2cc(C3C(C#N)=C(N)Oc4c3ccc3cccnc43)c(=O)[nH]c2c1 (stereo unspecified),"inconclusive [inhibitor, partial curve]"
12,O=c1oc2ccc3ccccc3c2cc1-c1nnc(-c2ccccc2)o1,"inconclusive [inhibitor, partial curve]"
13,COc1ccc(C(CC(=O)NCc2ccccc2)Sc2n[nH]c(-c3ccccc3)n2)cc1 (stereo unspecified),inactive
14,CCCCc1nnc(NC(=O)COc2ccc3c(C)cc(=O)oc3c2)s1,"inconclusive [inhibitor, single point]"
15,CCCCc1cc2c(cc1NC(=O)CN1CCCCC1)OCCO2,"inconclusive [inhibitor, single point]"
16,Cc1nc2ccccc2c(=O)n1/N=C/c1ccc(N(C)C)cc1,active: 15.8 µM
17,CN(C)S(=O)(=O)c1ccc(NC(=O)COC(=O)c2n[nH]c3ccccc23)cc1,inactive
18,Cc1ccc(-c2nnn(CC(=O)N(Cc3ccccc3)C(C(=O)NC(C)(C)C)c3ccncc3)n2)o1 (stereo unspecified),"inconclusive [inhibitor, single point]"
19,O=C1NC(c2ccco2)Nc2sc3c(c21)CCN(Cc1ccccc1)C3 (stereo unspecified),"inconclusive [inhibitor, partial curve]"
20,COc1ccc(OC)c(C2C3CN(C(C)C)CC=C3C(C#N)=C(N)C2(C#N)C#N)c1 (stereo unspecified),"inconclusive [inhibitor, partial curve]"
21,CCN1C(=O)C(CC(=O)Nc2ccc(OC)cc2)N(Cc2ccco2)C1=S (stereo unspecified),"inconclusive [inhibitor, single point]"
22,O=C(O)C1=CCCN(CCON=C(c2ccccc2)c2ccccc2)C1,"inconclusive [inhibitor, partial curve]"
23,O=C(c1cc2c(=O)n3ccccc3nc2s1)N1CCOCC1,"inconclusive [inhibitor, partial curve]"
